Results as given in ChEMBL document CHEMBL4888484, “Replenishing the malaria drug discovery pipeline: Screening and hit evaluation of the MMV Hit Generation Library 1 (HGL1) against asexual blood stage Plasmodium falciparum ,using a nano luciferase reporter read-out” (2022).
Among all 150,000 compounds or so, about 540 (0.36%) showed an effect of 50% or more. The list shows a part of the results.

Tested on: Plasmodium falciparum
Assay: Primary screen in NF54 nanoGlo assay, in single point, at 2uM, 72h; a lower Z score goes with more inhibition
Format: functional, Erythrocyte
Settings: timepoint 72 hour

| SMILES | % Inhibition [%] | Z score |
| --- | --- | --- |
| COc1ccc(C2=C(C)C(N3CCN(Cc4ccccc4)CC3)=NS2(=O)=O)cc1 | 0 | 0.02 |
| CO[C@H]1CCOC[C@@H]1NC(=O)c1ccccc1-c1ccccc1 | -6 | 0.76 |
| O=C(N[C@H]1CCCN(CC(F)(F)F)C1)c1cc(Br)ccc1O | -9 | 1.06 |
| O=C(CCc1nnc(CCCCc2ccccc2)o1)N1CCC[C@H]1CO | 5 | -0.71 |
| CC1CCN(S(=O)(=O)c2ccc3c(ccc(=O)n3CC(=O)NCc3ccccc3)c2)CC1 | -4 | 0.79 |
| CN(Cc1ccccc1)C(=O)c1cc(NC(=O)C2CCC2)ccc1N1CCN(C(=O)C2CCCC2)CC1 | -4 | 0.46 |
| CCS(=O)(=O)CC(=O)N1CCC[C@H]1c1nc2ccccc2s1 | 10 | -1.3 |
| Cc1ncsc1CN1CC[C@@]2(CCCN(C3CCCCC3)C2=O)C1 | 0 | 0.07 |
| O=C(COC(c1ccccc1)c1ccccc1)Nc1cccnc1 | -9 | 1.12 |
| Cc1cccc(C(=O)N2CCCCC[C@H]2c2noc(-c3cnn(C)c3)n2)n1 | -6 | 0.56 |
| CN(C)[C@H]1CCN(c2nc3c(c(C(F)(F)F)n2)CCCC3)C[C@H]1CCC(=O)O | -7 | 1.28 |
| COc1c2ccc(C(=O)NC[C@H]3CCCN3c3ccccc3)cc2nn1C | -9 | 1.7 |
| O=C(NC1CC1)c1cc(O)nc2c(Cl)cccc12 | -10 | 1.78 |
| CC(C)[C@H](Oc1cccc(Cl)c1)C(=O)N(C)Cc1c[nH]cn1 | 9 | -1.77 |
| NC(=O)C1(NC(=O)c2cc(-c3ccccc3F)n[nH]2)CCCC1 | -8 | 1.46 |
| CCn1c(=O)sc2cc(NC(=O)c3ccc4c(c3)OCO4)ccc21 | -3 | 0.38 |
| CC(C)Cn1ccnc1NC(=O)c1ccc(F)cc1 | -17 | 2.73 |
| CCCCN(CCCC)C(=O)c1cn(CCOC)c(C)cc1=O | -3 | 0.43 |
| CC(NCc1n[nH]c(C(C)(C)C)n1)C1CCCO1 (stereo not drawn) | 2 | -0.33 |
| Cc1nc(COc2nc(C(C)(C)C)no2)no1 | 2 | -0.25 |
| OC[C@H]1CCCN1Cc1cccc(OCc2c(F)cccc2Cl)c1 | -13 | 1.93 |

| SMILES | % Inhibition [%] | Z score |
| --- | --- | --- |
| COc1cc(C(=O)OCc2ccccn2)cc2c1O[C@@H](C)C2 | -6 | 0.84 |
| O=C(CCN1CCCCC1)N1CCC([C@]2(c3cccnc3)NC(=O)N(Cc3ccsc3)C2=O)CC1 | -9 | 1.28 |
| COCCN(CC(N)=O)C(=O)Cc1ccccc1Br | -8 | 1.35 |
| Cn1ncc2c(N3C4CCC3CC(O)(Cc3ccc(F)cc3F)C4)ncnc21 (stereo not drawn) | 14 | -1.49 |
| CCCCC1CCC(NC(=O)N2CCC[C@H]2C(=O)NC)CC1 (stereo partly drawn) | -3 | 0.32 |
| Cc1oc2ncn(CC(C)C)c(=O)c2c1C(=O)N1CCN(C(=O)c2ccco2)CC1 | 1 | -0.11 |
| CCn1nccc1CN(CCO)c1cc(C(F)(F)F)nc(-c2ccncc2)n1 | 7 | -1.02 |
| Cc1ccc(-n2nc3c(=O)n(CCCC(=O)NCc4cccnc4)nc(C)c3c2C)cc1 | 15 | -1.74 |
| CC[C@H](C)N(Cc1cccc(OS(=O)(=O)c2c(C)cccc2Cl)c1)C(=O)C1CCC1 | 2 | -0.34 |
| C[C@H](NC(=O)c1[nH]nc2ccccc12)C(=O)Nc1ccsc1 | -4 | 0.57 |
| Nc1ccnc(-c2noc(CCCOCc3ccccc3)n2)n1 | -7 | 0.96 |
| Cc1nc(N2CCN(c3ccc(N)nc3)CC2)ccc1C#N | 8 | -0.93 |
| CC(C)CC[C@H](C)NS(=O)(=O)CC1CCCCC1 | -4 | 0.4 |
| CCCc1cncnc1N1CCC[C@@]2(CCC(=O)N(Cc3cccnc3)C2)C1 | 0 | -0.01 |
| COCCc1nc(-c2cc(C#N)cn2C)n([C@H]2CCS(=O)(=O)C2)n1 | -3 | 0.48 |
| O=C(O)c1ccc(Oc2nccnc2N2CCCCC2)cc1 | 35 | -3.95 |
| Cn1c(N2CCC(c3nc4c(s3)CCCC4)CC2)cc(=O)n(C)c1=O | -13 | 1.51 |
| Nc1c(-c2ccc(F)cc2)nsc1C(=O)NC1CCN(Cc2ccccc2)CC1 | 40 | -5.16 |
| CN(Cc1cnc(-c2ccccc2)s1)C(=O)Nc1nncs1 | -9 | 1.12 |
| O=C(O)c1ccc(COc2ccc(CN3CCN4CCC[C@H]4C3)cc2)o1 | -14 | 2.71 |
| CCc1nc(-c2c(C)cc(C)nc2NC(=O)c2ccc(F)cc2F)no1 | -3 | 0.37 |

| SMILES | % Inhibition [%] | Z score |
| --- | --- | --- |
| CCc1ccc2ncn(Cc3nnc4n3CCC4)c(=O)c2c1 | 9 | -1.26 |
| Cc1nnsc1CN1CCN(C)[C@]2(CCC(=O)N(CC3CC3)CC2)C1 | -4 | 0.55 |
| CO[C@H](c1cccc(Cl)c1)c1noc(Cn2nc(C(F)(F)F)cc2C)n1 | -8 | 0.92 |
| CCOc1ccc(Br)cc1NC(=O)NC[C@@H](C)CCO | 1 | -0.11 |
| COc1ccc(S(=O)(=O)N2CCC[C@@](F)(C(=O)N3CCOCC3)C2)cc1OC | -18 | 1.6 |
| C[C@H](O)CN1CC2(CCC1=O)CCN(c1noc(C3CC3)n1)CC2 | 1 | -0.14 |
| CC(=O)NC1CCC(N[C@@H](C)c2ccc(C)o2)CC1 (stereo partly drawn) | -24 | 3.24 |
| CCN1CCN(C(=O)c2cc(C(C)C)n3nccc3n2)CC1 | 1 | -0.08 |
| Cc1nc(O)c(Br)cc1C(=O)N1CCC[C@H](CCO)CC1 | 0 | 0.07 |
| CCCc1cnc(C)nc1N1CCCn2nc([C@@H](O)c3ccnn3C)cc2C1 | 10 | -1.83 |
| Cc1[nH]c2ccnn2c(=O)c1CC(=O)NCC1(c2ccc(Cl)cc2)CCCC1 | 9 | -1.41 |
| CCCN1CCCN(C(=O)N[C@H]2CCCc3nn(C)cc32)CC1 | -7 | 0.74 |
| CCCONc1nc(N)nc(N(CC)CC)n1 | -2 | 0.19 |
| CC(C)(NS(=O)(=O)C1COC1)c1ccc(Cl)cc1 | -4 | 0.42 |
| COc1ccc(/C=C\c2onc(C)c2NC(C)=O)cc1S(=O)(=O)N(C)c1ccc(C)cc1 | 2 | -0.35 |
| C=CCN1CC[C@@]2(CCC1=O)CN(C(=O)N(C)c1ccccc1)CCN2C | -7 | 1.09 |
| CCC(=O)NCC(=O)N1CCCCCCNC(=O)C[C@H]1c1ccccc1 | -1 | 0.1 |
| CCCNC(=O)c1nc(C)c(C)nc1C(=O)Nc1ccc(C)cc1 | -42 | 4.94 |
| Cc1occc1C(=O)NC(c1ccc(F)cc1)[C@H]1C[C@@H](O)C1 (stereo partly drawn) | 7 | -1.07 |
| Cc1sc(C(=O)N(C)C[C@H](O)C2CC2)cc1-c1ccc(F)cc1 | 3 | -0.53 |
| CNc1ccc(C(=O)NCC2(O)CCC(C)CC2)cn1 (stereo not drawn) | 12 | -1.34 |

| SMILES | % Inhibition [%] | Z score |
| --- | --- | --- |
| COCCn1c(C(=O)NC(C)(C)C)cc2c(OCc3ccccc3)cccc21 | -10 | 1 |
| Cc1cc(C)c([C@H]2CC(=O)Nc3n[nH]cc32)cc1Cn1cncn1 | -11 | 1.82 |
| C[C@H]1Cc2c(NC(=O)c3ccc(S(=O)(=O)N(C)C)cc3)nn(C)c2NC1=O | 7 | -0.96 |
| C[C@H]1CN(c2ncccc2Br)CCN1S(C)(=O)=O | -6 | 0.63 |
| CCCS(=O)(=O)N(C)[C@@H](CC)c1ccccn1 | -4 | 0.7 |
| COC(=O)c1n[nH]cc1CN1CC[C@@]2(C1)CN(C)C(=O)O2 | 2 | -0.31 |
| CCn1nc(C(=O)N2CCCCC2)c2c1CC[C@H](O)C2 | 10 | -1.95 |
| Cc1nnc(-c2cc(C(C)C)n(-c3cccc(C(=O)NC[C@@H](C)c4ccccc4)c3)n2)o1 | -11 | 1.5 |
| N#CC1(NC(=O)c2cccc(C(=O)NC3CC3)c2)CCCCC1 | -22 | 2.71 |
| C[C@H](NC(=O)c1ccoc1)C(=O)Nc1cc(C(F)(F)F)ccc1O | 6 | -1 |
| CCc1ccccc1NC(=O)CN1C(=O)CCCc2cc(S(=O)(=O)N3CCCC3)ccc21 | -7 | 1.16 |
| Cn1c(=O)c2c(-c3ccc(Cl)cc3)n(-c3cccc4cccc(N)c34)cc2n(C)c1=O | 96 | -11.21 |
| Cc1ncsc1CCNC(=O)N(C)C1CCS(=O)(=O)CC1 | 3 | -0.26 |
| O=C(Nc1ccc(N2CCCCC2)cc1)c1sc2ccccc2c1Cl | -13 | 1.73 |
| CC(C)(C)C1CCC(CN2CC(O)C(N3CCCC3)C2)CC1 (stereo not drawn) | 16 | -2.2 |
| Cc1ccc2c(c1)CCCN2S(=O)(=O)c1ccc(N2CCCC2=O)cc1C | -2 | 0.22 |
| CCn1nc(C)cc1S(=O)(=O)NCc1noc(C2CC2)n1 | -4 | 0.55 |
| Cc1nn(C)c2nc(NCc3cc(CC(C)C)no3)sc12 | 1 | -0.16 |
| O=C(N[C@@H]1[C@@H]2CCO[C@@H]2[C@H]1N1CCCCC1)c1cccc(OC(F)F)c1 | -7 | 1.04 |
| Cc1cc(NCc2cnc3n2CCC3)ncn1 | -4 | 0.69 |
| C/C(=N\S(=O)(=O)c1ccc(Cl)cc1)Nc1ccc(O)c(C)c1C | -11 | 1.3 |
